Measurements published in patent US11147272B2, “Pyridone compounds and agricultural and horticultural fungicides comprising the same as active ingredients” (MITSUI CHEMICALS AGRO, INC., priority 2017, dated 2021).

Tests used:
[1] = test system: Alternaia brassicicola; experiment: Test Example C: Alternaria sooty spot on cabbage; assay type: in vivo; settings: 250 ppm drug solution sprayed on test plant
Source text: Seeds of a test plant (cabbage variety: Shikidori) were planted and cultivated until the cotyledons extended.
<Control Value> Control value=100{1−(n/3)}

[2] = test system: Botrytis cinerea; experiment: Test Example B: Gray mold on tomato; settings: 250 ppm drug solution sprayed on test plant
[3] = test system: Phytophthora infestans; assay type: in vivo; settings: 250 ppm drug solution sprayed on test plant
[4] = test system: Magnaporthe grisea; assay type: in vivo; settings: 250 ppm drug solution sprayed on test plant
[5] = test system: Puccinia recondita; experiment: Test Example E: Brown rust on wheat; assay type: in vivo; settings: 250 ppm drug solution sprayed on test plant
[6] = test system: Plasmopara viticola; experiment: Test Example G: Downy mildew on vine; settings: 250 ppm drug solution sprayed (2.5 ml/pot), grape Neomuscat, 7 to 10 days after inoculation
[7] = test system: Blumeria graminis f. sp. hordei; experiment: Test Example D: Powdery mildew on barley; settings: 250 ppm drug solution sprayed on test plant

Row | Structure (SMILES) | Test C control value [1] | Test B control value [2] | Test F control value [3] | Test A control value [4] | Test E control value [5] | Test G control value [6] | Test D control value [7]
1 | CCn1c(-c2c(F)cccc2F)c(C(C)(O)C(C)C)cc(Br)c1=O (centres unmarked) [compound 522] | H (more than 50% control value) | H (more than 50% control value) | H (more than 50% control value) | H (more than 50% control value) | H (more than 50% control value) | H (more than 50% control value) | H (more than 50% control value)
2 | CCn1c(-c2c(F)cccc2F)c(C(C)(OC)C(C)C)cc(Br)c1=O (centres unmarked) [compound 523] | H (more than 50% control value) | H (more than 50% control value) | L (50% or less control value) | H (more than 50% control value) | H (more than 50% control value) | H (more than 50% control value) | H (more than 50% control value)
